Experimental data: the supplement of paper PMC8728848
Some of the results follow.

Columns and labels:
Test in all cases: glycan array binding signal (z-score within array); higher = stronger binding
Settings in all cases: glycan notation: IUPAC condensed, linker removed
Gal4S6S(b1-4)GlcNAc = target: Gal4S6S(b1-4)GlcNAc
Summary of the method: (§1)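 The binding signal is a Z-score computed within each array. Data were drawn from 3228 arrays in the Consortium for Functional Glycomics database, restricted to those with a known protein sequence. Scores were averaged over arrays of the same protein sequence at different concentrations or buffers, and over linkers, and negative values can be taken as non-binding.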

Gal6S(b1-4)Glc = target: Gal6S(b1-4)Glc
Summary of the method: as §1

Gal6S(b1-4)Glc6S = target: Gal6S(b1-4)Glc6S
Summary of the method: as §1

Gal6S(b1-4)GlcNAc = target: Gal6S(b1-4)GlcNAc
Summary of the method: as §1

GalNAc(a1-3)Gal = target: GalNAc(a1-3)Gal
Summary of the method: as §1

GalNAc(a1-3)GalNAc = target: GalNAc(a1-3)GalNAc
Summary of the method: as §1

[1] = target: GalNAc(b1-3)Gal(a1-4)Gal(b1-4)GlcNAc
Summary of the method: as §1

GalNAc(b1-3)GalNAc = target: GalNAc(b1-3)GalNAc
Summary of the method: as §1

GalNAc(b1-4)GlcNAc = target: GalNAc(b1-4)GlcNAc
Summary of the method: as §1

Glc(a1-4)Glc = target: Glc(a1-4)Glc
Summary of the method: as §1

Glc(a1-6)Glc(a1-6)Glc = target: Glc(a1-6)Glc(a1-6)Glc
Summary of the method: as §1

Glc(b1-4)Glc = target: Glc(b1-4)Glc
Summary of the method: as §1

Glc(b1-6)Glc = target: Glc(b1-6)Glc
Summary of the method: as §1

GlcA(b1-3)Gal = target: GlcA(b1-3)Gal
Summary of the method: as §1

GlcA(b1-6)Gal = target: GlcA(b1-6)Gal
Summary of the method: as §1

[2] = target: GlcNAc(a1-3)Gal(b1-4)GlcNAc
Summary of the method: as §1

[3] = target: GlcNAc(a1-6)Gal(b1-4)GlcNAc
Summary of the method: as §1

[4] = target: GlcNAc(b1-2)Gal(b1-3)GalNAc
Summary of the method: as §1

[5] = target: GlcNAc(b1-2)Man(a1-3)[GlcNAc(b1-2)Man(a1-6)]Man(b1-4)GlcNAc(b1-4)GlcNAc
Summary of the method: as §1

GlcNAc(b1-3)Gal = target: GlcNAc(b1-3)Gal
Summary of the method: as §1

[6] = target: GlcNAc(b1-3)Gal(b1-3)GalNAc
Summary of the method: as §1

GlcNAc(b1-3)Gal(b1-4)Glc = target: GlcNAc(b1-3)Gal(b1-4)Glc
Summary of the method: as §1

[7] = target: GlcNAc(b1-3)Gal(b1-4)GlcNAc
Summary of the method: as §1

[8] = target: GlcNAc(b1-3)Gal(b1-4)GlcNAc(b1-3)Gal(b1-4)GlcNAc
Summary of the method: as §1

GlcNAc(b1-3)GalNAc = target: GlcNAc(b1-3)GalNAc
Summary of the method: as §1

[9] = target: GlcNAc(b1-3)[GlcNAc(b1-6)]Gal(b1-4)GlcNAc
Summary of the method: as §1

[10] = target: GlcNAc(b1-3)[GlcNAc(b1-6)]GalNAc
Summary of the method: as §1

[11] = target: GlcNAc(b1-3)[GlcNAc(b1-6)]GlcNAc(b1-4)GlcNAc
Summary of the method: as §1

[12] = target: GlcNAc(b1-4)Gal(b1-4)GlcNAc
Summary of the method: as §1

[13] = target: GlcNAc(b1-4)GlcNAc(b1-4)GlcNAc
Summary of the method: as §1

[14] = target: GlcNAc(b1-4)GlcNAc(b1-4)GlcNAc(b1-4)GlcNAc(b1-4)GlcNAc
Summary of the method: as §1

[15] = target: GlcNAc(b1-4)GlcNAc(b1-4)GlcNAc(b1-4)GlcNAc(b1-4)GlcNAc(b1-4)GlcNAc
Summary of the method: as §1

[16] = target: GlcNAc(b1-4)[GlcNAc(b1-6)]GalNAc
Summary of the method: as §1

[17] = target: GlcNAc(b1-6)Gal(b1-4)GlcNAc
Summary of the method: as §1

GlcNAc(b1-6)GalNAc = target: GlcNAc(b1-6)GalNAc
Summary of the method: as §1

Kdn(a2-3)Gal(b1-3)GlcNAc = target: Kdn(a2-3)Gal(b1-3)GlcNAc
Summary of the method: as §1

Kdn(a2-3)Gal(b1-4)GlcNAc = target: Kdn(a2-3)Gal(b1-4)GlcNAc
Summary of the method: as §1

[18] = target: Man(a1-2)Man(a1-2)Man(a1-3)Man
Summary of the method: as §1

[19] = target: Man(a1-2)Man(a1-2)Man(a1-6)[Man(a1-3)]Man
Summary of the method: as §1

Man(a1-2)Man(a1-3)Man = target: Man(a1-2)Man(a1-3)Man
Summary of the method: as §1

[20] = target: Man(a1-2)Man(a1-3)[Man(a1-2)Man(a1-6)]Man
Summary of the method: as §1

[21] = target: Man(a1-2)Man(a1-3)[Man(a1-2)Man(a1-6)]Man(a1-6)[Man(a1-2)Man(a1-2)Man(a1-3)]Man(b1-4)GlcNAc(b1-4)GlcNAc
Summary of the method: as §1

[22] = target: Man(a1-2)Man(a1-3)[Man(a1-6)]Man(a1-6)[Man(a1-2)Man(a1-3)]Man(b1-4)GlcNAc(b1-4)GlcNAc
Summary of the method: as §1

[23] = target: Man(a1-2)Man(a1-6)[Man(a1-3)]Man(a1-6)[Man(a1-2)Man(a1-2)Man(a1-3)]Man(b1-4)GlcNAc(b1-4)GlcNAc
Summary of the method: as §1

Man(a1-3)[Man(a1-6)]Man = target: Man(a1-3)[Man(a1-6)]Man
Summary of the method: as §1

[24] = target: Man(a1-3)[Man(a1-6)]Man(a1-6)[Man(a1-2)Man(a1-3)]Man(b1-4)GlcNAc(b1-4)GlcNAc
Summary of the method: as §1

[25] = target: Man(a1-3)[Man(a1-6)]Man(a1-6)[Man(a1-3)]Man(b1-4)GlcNAc(b1-4)GlcNAc
Summary of the method: as §1

[26] = target: Man(a1-3)[Man(a1-6)]Man(b1-4)GlcNAc(b1-4)GlcNAc
Summary of the method: as §1

Man(b1-4)GlcNAc = target: Man(b1-4)GlcNAc
Summary of the method: as §1

Neu5Ac(a2-3)Gal = target: Neu5Ac(a2-3)Gal
Summary of the method: as §1

[27] = target: Neu5Ac(a2-3)Gal(b1-3)GalNAc
Summary of the method: as §1

[28] = target: Neu5Ac(a2-3)Gal(b1-3)GalNAc(b1-3)Gal(a1-4)Gal(b1-4)Glc
Summary of the method: as §1

B1: F17fG (Escherichia coli), Q9RH91 (protein)
chain: MTNFYKVFLAVFILVCCNISHAAVSFIGSTENDVGPSQGSYSSTHAMDNLPFVYNTGHNIGYQNANVWRISGGFCVGLDGKVDLPVVGSLDGQSIYGLTEEVGLLIWMGDTNYSRGTAMSGNSWENVFSGWCVGNYVSTQGLSVHVRPVILKRNSSAQYSVQKTSIGSIRMRPYNGSSAGSVQTTVNFSLNPFTLNDTVTSCRLLTPSAVNVSLAAISAGQLPSSGDEVVAGTTSLKLQCDAGVTVWATLTDATTPSNRSDILTLTGASTATGVGLRIYKNTDSTPLKFGPDSPVKGNENQWQLSTGTETSPSVRLYVKYVNTGEGINPGTVNGISTFTFSYQ
glycan array binding signal (z-score) (Gal4S6S(b1-4)GlcNAc): 0.026 | glycan array binding signal (z-score) (Gal6S(b1-4)Glc): -0.277 | glycan array binding signal (z-score) (Gal6S(b1-4)Glc6S): -0.125 | glycan array binding signal (z-score) (Gal6S(b1-4)GlcNAc): -0.127 | glycan array binding signal (z-score) (GalNAc(a1-3)Gal): -0.286 | glycan array binding signal (z-score) (GalNAc(a1-3)GalNAc): -0.34 | glycan array binding signal (z-score) [1]: -0.372 | glycan array binding signal (z-score) (GalNAc(b1-3)GalNAc): 1.71 | glycan array binding signal (z-score) (GalNAc(b1-4)GlcNAc): -0.327 | glycan array binding signal (z-score) (Glc(a1-4)Glc): -0.363 | glycan array binding signal (z-score) (Glc(a1-6)Glc(a1-6)Glc): -0.362 | glycan array binding signal (z-score) (Glc(b1-4)Glc): -0.329 | glycan array binding signal (z-score) (Glc(b1-6)Glc): -0.088 | glycan array binding signal (z-score) (GlcA(b1-3)Gal): -0.075 | glycan array binding signal (z-score) (GlcA(b1-6)Gal): -0.209 | glycan array binding signal (z-score) [2]: -0.323 | glycan array binding signal (z-score) [3]: -0.364 | glycan array binding signal (z-score) [4]: -0.315 | glycan array binding signal (z-score) [5]: -0.238 | glycan array binding signal (z-score) (GlcNAc(b1-3)Gal): 5.09 | glycan array binding signal (z-score) [6]: 5.89 | glycan array binding signal (z-score) (GlcNAc(b1-3)Gal(b1-4)Glc): 4.83 | glycan array binding signal (z-score) [7]: 2.55 | glycan array binding signal (z-score) [8]: 0.224 | glycan array binding signal (z-score) (GlcNAc(b1-3)GalNAc): 1.77 | glycan array binding signal (z-score) [9]: 6.97 | glycan array binding signal (z-score) [10]: 1.06 | glycan array binding signal (z-score) [11]: 0.169 | glycan array binding signal (z-score) [12]: 1 | glycan array binding signal (z-score) [13]: 0.055 | glycan array binding signal (z-score) [14]: -0.192 | glycan array binding signal (z-score) [15]: -0.266 | glycan array binding signal (z-score) [16]: 3.53 | glycan array binding signal (z-score) [17]: 0.025 | glycan array binding signal (z-score) (GlcNAc(b1-6)GalNAc): 0.437 | glycan array binding signal (z-score) (Kdn(a2-3)Gal(b1-3)GlcNAc): -0.176 | glycan array binding signal (z-score) (Kdn(a2-3)Gal(b1-4)GlcNAc): -0.234 | glycan array binding signal (z-score) [18]: -0.316 | glycan array binding signal (z-score) [19]: -0.391 | glycan array binding signal (z-score) (Man(a1-2)Man(a1-3)Man): -0.342 | glycan array binding signal (z-score) [20]: -0.357 | glycan array binding signal (z-score) [21]: -0.304 | glycan array binding signal (z-score) [22]: -0.263 | glycan array binding signal (z-score) [23]: -0.322 | glycan array binding signal (z-score) (Man(a1-3)[Man(a1-6)]Man): -0.298 | glycan array binding signal (z-score) [24]: -0.319 | glycan array binding signal (z-score) [25]: -0.33 | glycan array binding signal (z-score) [26]: -0.241 | glycan array binding signal (z-score) (Man(b1-4)GlcNAc): -0.319 | glycan array binding signal (z-score) (Neu5Ac(a2-3)Gal): -0.228 | glycan array binding signal (z-score) [27]: -0.237 | glycan array binding signal (z-score) [28]: -0.282
